Source: patent US11420968B2 (priority 2018, dated 2022)
Like-named read-outs stand apart in the source and are kept apart here.

Legend:
[1] = tested on: RS4;11 cells; test: cells; details: Homo sapiens
[2] = tested on: Molt-4 cells; test: cells; details: Homo sapiens
[3] = RS4-11, 48 h, read-out: Cellular activity (IC50, nM) RS4;11
[4] = RS4-11, read-out: Celluclar activity (IC50, nM) RS 4, 11
[5] = MOLT-4, read-out: Celluclar activity (IC50, nM) Molt-4
[6] = MOLT-4, read-out: Cellular activity (IC50, nM) Molt-4
[7] = RS4-11, 48 h, read-out: Cellular activity (IC50, nM) RS4, 11

`CC(C)c1ccccc1[C@@H]1CCCN1C1CC2(CCN(c3ccc(C(=O)NS(=O)(=O)c4ccc(NCC5(F)CCOCC5)c([N+](=O)[O-])c4)c(Oc4cnc5[nH]ccc5c4)c3)CC2)C1` [Example F46] was tested, and the IC50 [1, 3] was 0.4 nM, the IC50 [1, 4] was 0.4 nM and the IC50 [2, 5] was 2850 nM. It also gave an IC50 [2, 6] of 2850 nM.
`C[C@]1(O)CC[C@H](CNc2ccc(S(=O)(=O)NC(=O)c3ccc(N4CCC5(CC4)CC(N4CC(C(F)(F)F)CC4c4ccccc4C4CC4)C5)cc3Oc3cnc4[nH]ccc4c3)cc2[N+](=O)[O-])CC1` (stereo partly drawn) [Example F84, 2-((1H-pyrrolo[2,3-b]pyridin-5-yl)oxy)-4-(2-(2-(2-cyclopropylphenyl)-4-(trifluoromethyl)pyrrolidin-1-yl)-7-azaspiro[3.5]nonan-7-yl)-N-((4-((((1r,4r)-4-hydroxy-4-methylcyclohexyl)methyl)amino)-3-nitrophenyl)sulfonyl)benzamide] gave an IC50 [1, 3] of 44 nM and an IC50 [2, 6] of 2230 nM.
`O=C(NS(=O)(=O)c1ccc(OCC2CCC(O)CC2)c([N+](=O)[O-])c1)c1ccc(C2=CCC(N3CCC[C@H]3c3ccccc3C3CC3)CC2)cc1Oc1cnc2[nH]ccc2c1` (stereo partly drawn) [Example G81a, (cis- or trans-) 3-((1H-pyrrolo[2,3-b]pyridin-5-yl)oxy)-4′-((S)-2-(2-cyclopropylphenyl)pyrrolidin-1-yl)-N-((4-((4-hydroxycyclohexyl)methoxy)-3-nitrophenyl)sulfonyl)-2′,3′,4′,5′-tetrahydro-[1,1′-biphenyl]-4-carboxamide] gave an IC50 [1, 7] of 49 nM and an IC50 [2, 6] of 5490 nM.
For `O=C(NS(=O)(=O)c1ccc(NCC2CCOCC2)c([N+](=O)[O-])c1)c1ccc(-c2ccc(N3CCCCC3c3ccccc3C3CC3)cc2)cc1Oc1cnc2[nH]ccc2c1` (stereo not drawn) [Example A152, 3-((1H-pyrrolo[2,3-b]pyridin-5-yl)oxy)-4′-(2-(2-cyclopropylphenyl)piperidin-1-yl)-N-((3-nitro-4-(((tetrahydro-2H-pyran-4-yl)methyl)amino)phenyl)sulfonyl)-[1,1′-biphenyl]-4-carboxamide], the IC50 [1, 3] was 214 nM and the IC50 [2, 6] was > 10000 nM.
`C[C@]1(O)CC[C@H](CNc2ccc(S(=O)(=O)NC(=O)c3ccc(-c4ccc(N5CC(F)(F)CC5c5ccccc5C5CC5)cc4)cc3Oc3cnc4[nH]ccc4c3)cc2[N+](=O)[O-])CC1` (single isomer, unassigned) [Example G133, (R or S)-3-((1H-pyrrolo[2,3-b]pyridin-5-yl)oxy)-4′-(2-(2-cyclopropylphenyl)-4,4-difluoropyrrolidin-1-yl)-N-((4-((((1r,4r)-4-hydroxy-4-methylcyclohexyl)methyl)amino)-3-nitrophenyl)sulfonyl)-[1,1′-biphenyl]-4-carboxamide] was tested, and the IC50 [1, 3] was 1.5 nM and the IC50 [2, 6] was 392 nM.
With `CN(c1ccc(C(=O)NS(=O)(=O)c2ccc(NCC3CCOCC3)c([N+](=O)[O-])c2)c(Oc2cnc3[nH]ccc3c2)c1)C1CCC(N2CCCC2c2ccccc2C2CC2)CC1` (stereo not drawn) [Example F11, (trans- or cis-) 2-((1H-pyrrolo[2,3-b]pyridin-5-yl)oxy)-4-((4-(2-(2-cyclopropylphenyl)pyrrolidin-lyI)cyclohexyl)(methyl)amino)-N-((3-nitro-4-(((tetrahydro-2H-pyran-4-yl)methyl)amino)phenyl)sulfonyl)benzamide] the IC50 [1, 7] was 329 nM and the IC50 [2, 6] was > 10000 nM.
`CN(C)Cc1ccccc1[C@H]1CCCN1c1ccc(-c2ccc(C(=O)NS(=O)(=O)c3ccc(NCC4CCOCC4)c([N+](=O)[O-])c3)c(Oc3cnc4[nH]ccc4c3)c2)cc1` [Example A129, (R)-3-((1H-pyrrolo[2,3-b]pyridin-5-yl)oxy)-4′-(2-(2-((dimethylamino)methyl)phenyl)pyrrolidin-1-yl)-N-((3-nitro-4-(((tetrahydro-2H-pyran-4-yl)methyl)amino)phenyl)sulfonyl)-[1,1′-biphenyl]-4-carboxamide] was tested, and the IC50 [1, 3] was 45 nM and the IC50 [2, 6] was 4350 nM.
In the case of `O=C(NS(=O)(=O)c1ccc(NCC2CCOCC2)c([N+](=O)[O-])c1)c1ccc(N2CCC3(CC2)CC(c2ccccc2-c2ccccc2C2CC2)C3)cc1Oc1cnc2[nH]ccc2c1` [Example F93, 2-((1H-pyrrolo[2,3-b]pyridin-5-yl)oxy)-4-(2-(2′-cyclopropyl-[1,1′-biphenyl]-2-yl)-7-azaspiro[3.5]nonan-7-yl)-N-((3-nitro-4-(((tetrahydro-2H-pyran-4-yl)methyl)amino)phenyl)sulfonyl)benzamide], the IC50 [1, 3] is reported as 900 nM and the IC50 [2, 6] is reported as > 10000 nM.
With `CN(CC1CCOCC1)C(=O)Nc1ccc(S(=O)(=O)NC(=O)c2ccc(N3CCC4(CC3)CC(N3CCC[C@H]3c3ccccc3C3CC3)C4)cc2Oc2cnc3[nH]ccc3c2)cc1[N+](=O)[O-]` [Example F128, (S)-2-((1H-pyrrolo[2,3-b]pyridin-5-yl)oxy)-4-(2-(2-(2-cyclopropylphenyl)pyrrolidin-1-yl)-7-azaspiro[3.5]nonan-7-yl)-N-((4-(3-methyl-3-((tetrahydro-2H-pyran-4-yl)methyl)ureido)-3-nitrophenyl)sulfonyl)benzamide] the IC50 [1, 3] was 7.8 nM and the IC50 [2, 6] was 1810 nM.
With `CN(C)CCc1ccccc1C1CCCN1c1ccc(-c2ccc(C(=O)NS(=O)(=O)c3ccc(NCC4CCOCC4)c([N+](=O)[O-])c3)c(Oc3cnc4[nH]ccc4c3)c2)cc1` (stereo not drawn) [Example A130, 3-((1H-pyrrolo[2,3-b]pyridin-5-yl)oxy)-4′-(2-(2-(2-(dimethylamino)ethyl)phenyl)pyrrolidin-1-yl)-N-((3-nitro-4-(((tetrahydro-2H-pyran-4-yl)methyl)amino)phenyl)sulfonyl)-[1,1′-biphenyl]-4-carboxamide] the IC50 [1, 3] was 31 nM and the IC50 [2, 6] was > 10000 nM.
For `O=C(NS(=O)(=O)c1ccc(NCCN2CCOCC2=O)c([N+](=O)[O-])c1)c1ccc(N2CCC3(CC2)CC(N2CCC[C@H]2c2ccccc2C2CC2)C3)cc1Oc1cnc2[nH]ccc2c1` [Example F118, (S)-2-((1H-pyrrolo[2,3-b]pyridin-5-yl)oxy)-4-(2-(2-(2-cyclopropylphenyl)pyrrolidin-1-yl)-7-azaspiro[3.5]nonan-7-yl)-N-((3-nitro-4-((2-(3-oxomorpholino)ethyl)amino)phenyl)sulfonyl)benzamide], the IC50 [1, 3] was 120 nM and the IC50 [2, 6] was > 10000 nM.
Compound `C=C(C)c1ccccc1C1CCCN1C1CC=C(c2ccc(C(=O)NS(=O)(=O)c3ccc(NCC4CCOCC4)c([N+](=O)[O-])c3)c(Oc3cnc4[nH]ccc4c3)c2)CC1` (stereo not drawn) [Example C19, 3-((1H-pyrrolo[2,3-b]pyridin-5-yl)oxy)-N-((3-nitro-4-(((tetrahydro-2H-pyran-4-yl)methyl)amino)phenyl)sulfonyl)-4′-(2-(2-(prop-1-en-2-yl)phenyl)pyrrolidin-1-yl)-2′,3′,4′,5′-tetrahydro-[1,1′-biphenyl]-4-carboxamide] has an IC50 [1, 7] of 204 nM and an IC50 [2, 6] of 7270 nM.
In the case of `O=C(NS(=O)(=O)c1ccc(NC[C@@H]2CCN(C3COC3)C2)c([N+](=O)[O-])c1)c1ccc(C2=CCC(N3CCCC3c3ccccc3C3CC3)CC2)cc1Oc1cnc2[nH]ccc2c1` (stereo partly drawn) [Example G39, 3-((1H-pyrrolo[2,3-b]pyridin-5-yl)oxy)-4′-(2-(2-cyclopropylphenyl)pyrrolidin-1-yl)-N-((3-nitro-4-((((S)-1-(oxetan-3-yl)pyrrolidin-3-yl)methyl)amino)phenyl)sulfonyl)-2′,3′,4′,5′-tetrahydro-[1,1′-biphenyl]-4-carboxamide], the IC50 [1, 7] is reported as 116 nM and the IC50 [2, 6] is reported as 6260 nM.
For `CCc1ccccc1[C@@H]1CCCN1C1CC2(C1)CN(c1ccc(C(=O)NS(=O)(=O)c3ccc(NC[C@H]4COCCO4)c([N+](=O)[O-])c3)c(Oc3cnc4[nH]ccc4c3)c1)C2` [Example F112, N-((4-((((S)-1,4-dioxan-2-yl)methyl)amino)-3-nitrophenyl)sulfonyl)-2-((1H-pyrrolo[2,3-b]pyridin-5-yl)oxy)-4-(6-((S)-2-(2-ethylphenyl)pyrrolidin-1-yl)-2-azaspiro[3.3]heptan-2-yl) benzamide], the IC50 [1, 3] was 0.7 nM and the IC50 [2, 6] was 871 nM.
For `O=C(NS(=O)(=O)c1ccc(NCC2CCOCC2)c([N+](=O)[O-])c1)c1ccc(N2CC3(CN(CC4CCCN4c4ccccc4C4CC4)C3)C2)cc1Oc1cnc2[nH]ccc2c1` (stereo not drawn) [Example F114, 2-((1H-pyrrolo[2,3-b]pyridin-5-yl)oxy)-4-(6-((1-(2-cyclopropylphenyl)pyrrolidin-2-yl)methyl)-2,6-diazaspiro[3.3]heptan-2-yl)-N-((3-nitro-4-(((tetrahydro-2H-pyran-4-yl)methyl)amino)phenyl)sulfonyl)benzamide], the IC50 [1, 3] was 152 nM, the IC50 ([1]; RS4-11, read-out: Cellular activity (IC50, nM) RS4, 11) was 152 nM and the IC50 [2, 6] was 2960 nM.
With `O=C(NS(=O)(=O)c1ccc(NCC2CCOCC2)c([N+](=O)[O-])c1)c1ccc(N2CCC(N3CCCC3c3cccc(Cl)c3)CC2)cc1Oc1cnc2[nH]ccc2c1` (stereo not drawn) [Example E4, 2-((1H-pyrrolo[2,3-b]pyridin-5-yl)oxy)-4-(4-(2-(3-chlorophenyl)pyrrolidin-1-yl)piperidin-1-yl)-N-((3-nitro-4-(((tetrahydro-2H-pyran-4-yl)methyl)amino)phenyl)sulfonyl)benzamide] the IC50 [1, 7] was 798 nM and the IC50 [2, 6] was > 10000 nM.
Compound `CN1CCC(N(C)c2ccccc2[C@H]2CCCN2c2ccc(-c3ccc(C(=O)NS(=O)(=O)c4ccc(NCC5CCOCC5)c([N+](=O)[O-])c4)c(Oc4cnc5[nH]ccc5c4)c3)cc2)C1` (stereo partly drawn) [Example A133, 3-((1H-pyrrolo[2,3-b]pyridin-5-yl)oxy)-4′-((2R)-2-(2-(methyl(1-methylpyrrolidin-3-yl)amino)phenyl)pyrrolidin-1-yl)-N-((3-nitro-4-(((tetrahydro-2H-pyran-4-yl)methyl)amino)phenyl)sulfonyl)-[1,1′-biphenyl]-4-carboxamide] has an IC50 [1, 3] of 6.3 nM and an IC50 [2, 6] of 5960 nM.
`CC1(C)CCC(CN2CCN(c3ccc(C(=O)NS(=O)(=O)c4ccc(NCC5CCOCC5)c([N+](=O)[O-])c4)c(Oc4cnc5[nH]ccc5c4)c3)CC2)=C(c2ccc(Cl)cc2)C1` [ABT-199, Venetoclax, reference compound] was tested, and the IC50 [1, 3] was 9.5 nM, the IC50 [1, 4] was 9.5 nM and the IC50 ([1]; RS4-11, read-out: Cellular activity (IC50, nM)) was 3.8 nM. The IC50 [2, 5] was 3170 nM and the IC50 [2, 6] was 3170 nM.
